PubChem BioAssay AID686978 (National Center for Advancing Translational Sciences (NCATS), 2013)
The campaign covered roughly 420,000 compounds. About 64,000 (15%) were called active. The inconclusive results got no clear call from the source; some entries with a clear call stand among them for comparison. Calls follow the shape of the dose curve; as a rule, active = well fitted inhibition curve with a large enough effect; inconclusive = small, poorly fitted or top-dose-only effect; inactive = flat fitted curve, though single readings scatter. Potencies of inconclusive entries are left out as doubtful fits.

Assay: qHTS for Inhibitors of human tyrosyl-DNA phosphodiesterase 1 (TDP1): qHTS in cells in absence of CPT; also: nearly all actives have a fitted effect of over 55% in size
Conditions: DT40 Tdp1-/- hTDP1 cells, no CPT, ATP luminescence, 48 h; series mostly up to 46.2 µM
Summary of the method: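 Luminescent ATP content (CellTiter-Glo) served as the growth readout. Knockout chicken DT40 cells expressing human TDP1 were exposed to compounds without camptothecin for a minimum 48 hr at 37 °C.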
Potency is read from the fitted curve at half-maximal effect; tags tell the direction and shape of the fitted curve.

SMILES | Potency
Cc1cc(N2CCOCC2)nc2cc(O)ccc12 | inactive
COc1cc(NCc2ccccc2)c2ncn(C(C)C)c2c1 | inactive
CC(=O)Cc1cc(O)c2ccccc2c1OC(=O)c1ccc(Br)cc1 | active: 20.6 µM
COc1ccc(NC(=O)CCCn2c(=O)c3sccc3n(Cc3ccc(C)cc3C)c2=O)cc1 | active: 16.4 µM
CCN1C(=O)CC(C(=O)Nc2ccc(F)cc2)SC1=Nc1cccc(OC)c1 (stereo not drawn) | inconclusive [inhibitor, single point]
CCOc1cccc(NC(=O)C2CC(=O)N(C)C(=Nc3ccc(F)cc3)S2)c1 (stereo not drawn) | inconclusive [inhibitor, single point]
COc1ccc(/C=N/NC(=O)CSc2ccccn2)cc1OC | inactive
O=C(CSc1nc2ccccc2[nH]1)Nc1ccc2c(c1)OCCO2 | inactive
COC(=O)c1cc(OC)c(OC)cc1N1C(=O)CC(C)(C)CC1=O | inactive
COc1ccc(/C=N/NC(=S)NCCc2ccccc2)cc1 | active: 25.9 µM
Cc1cc(-c2ccc(C(C)C)c(S(=O)(=O)N3CCC(C)CC3)c2)on1 | active: 18.4 µM
CCOc1ccc(C(=O)CC(C(=O)O)N2CCCCC2)cc1 (stereo not drawn) | inconclusive [inhibitor, single point]
CCCn1c(CCC(=O)O)nc2cc(S(=O)(=O)N3CCCC3)ccc21 | inactive
O=c1c(Cl)c(N2CCN(c3ccc(F)cc3)CC2)cnn1-c1nc2ccccc2s1 | inconclusive [inhibitor, single point]
COc1ccc(F)c(CN(C)CC2CCCN(CCc3ccc(F)cc3)C2)c1 (stereo not drawn) | active: 16.4 µM
Cc1ccc(-n2c(C)c(C)c3c(NCCCO)ncnc32)cc1 | inconclusive [inhibitor, single point]
Nn1c(Cc2ccc(F)cc2)n[nH]c1=S | inactive
Cn1cc(C(c2ccccc2)c2ccc(Cl)s2)c2ccccc21 (stereo not drawn) | inactive
Cc1ccc(N2C(=O)CSC23C(=O)N(CC(=O)NC2CCCCC2)c2ccccc23)cc1C (stereo not drawn) | inconclusive [inhibitor, single point]
Cn1c(=O)c(NC2CCCCC2)c2c3c(cccc31)C(=O)c1ccccc1-2 | inconclusive [inhibitor, single point]
CCOC(=O)C1=C(C)N=c2s/c(=C\c3ccc(C(=O)O)cc3)c(=O)n2C1c1ccc(F)cc1 (stereo not drawn) | inactive
COc1ccccc1C(=O)NC(=S)Nc1ccccc1N1CCCCC1 | inconclusive [inhibitor, single point]
CCc1nc2c(OCCc3cccc(OC)c3)cccn2c1N(C)C(=O)c1ccc(C)cc1 | inconclusive [inhibitor, single point]
